Results as given in the supplement of paper PMC11417369.
This is one part of the list.

Test system: PfHDP1 homeodomain (GST-tagged)
Assay: gcPBM binding intensity (ln(normalized median fluorescence intensity)); higher = stronger DNA binding
In short: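 DNA-binding domains from P. falciparum, fused to GST and produced in E. coli, were put on an Agilent 4 × 180k double-stranded probe array for 1 h in 1× PBS holding 1% milk, 0.2 mg/ml BSA, 0.5% salmon testes DNA and 0.03% Triton X-100. Probes were primer-extended, 36 bp long and drawn from intergenic genomic regions, with negative controls included. After Alexa488 anti-GST antibody detection and a 488 nm scan, binding intensity was set as the highest Masliner-normalised natural-log median intensity across replicate spots of either probe orientation.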

Sequence	gcPBM binding intensity (ln)
TACATACATACAGGAGTGCATATATCACAATTATTA	7.99
GAAATTTTTAATGTGGTGCACAGGAAATTTTTTCTT	9.56
TATTTCCTTTTTCTTGTTATTCATGAGAAAAAATGA [CACACA_negctrl_site482]	6.37
AAAATAATAATAGGCACACATATATATATATATATA [CACACA_site2058]	9.54
ATATATAATATAATATGTACATAAAATTTTAACATT [XGTACX_site5773]	6.66
TTATATATATCTAATTGTACAATATTATGTTCATTA [XGTACX_site7479]	6.73
ATTTATTAAATAAAAAGTACAAAATAAGAAAGAAGA [XGTACX_site6935]	7.53
TATATTCCCTTAATCACACATAAATAAAAAAAAATA [CACACA_site6094]	6.45
AAAAAAACAGTGAATGCACACATTTAAGATCCATAT [CACACA_site3148]	9
TTTCTTTATAAATTAATATTCACAACACAAAATATA [CACACA_negctrl_site450]	6.71
AAGAAAATAAAAAATAAGCATAATATGATATGATAT [TGCATGCA_negctrl_site196]	6.64
GTGCATATAAGGAAGTGTACGAAAAAAAATATTCCA [XGTACX_site8490]	7.36
AAAAATTTGGCATACACACACACACCGACACAGACA [CACACA_site4489]	6.76
CAAATATGTCTTATTCGTACACATATATATATATAT [XGTACX_site8817]	9.12
ACGACTAAATATATGAGTACATATATATATAAATAT [XGTACX_site7522]	6.26
AAGAATCATATTTAAACACACATACAGATATATATA [CACACA_site5787]	6.73
TCTAAAATAAATAATGCATGTTAAAAAAAAATATAT [TGCATGCA_site562]	6.79
TGCAAAAAATTCCACACACACACACCCATATAAATA [CACACA_site1230]	6.76
ATGTATGTTTATTACTATTTTGAGAATAGACTATAA [CACACA_negctrl_site1366]	6.3
AATTTGGTGTGTGTAAAAGTATGTGTCTATATTTAT [GTGCAC_negctrl_site166]	7.17
AGTTATATGATTAATACACACAACAAATGTTTCTTC [CACACA_site1092]	6.65
CTGATCCACATTTATACACACCTCGGTTTGTAGAGA [CACACA_site4393]	6.37
AAAATATATAATATTTGTACATATTGATGGCAACAG [XGTACX_site6454]	6.56

Sequence	gcPBM binding intensity (ln)
TTTTACACTTTTTTTTGTACACACTAAAAAGATTAA [XGTACX_site8407]	6.67
CAAATCATATATAGCACACAAATTCTTTATTATTAT [CACACA_site2815]	6.69
AAAGGTTCATAAAAATGTACATAATTATTTACATGT [XGTACX_site2722]	6.39
TCATAACAACTTTGTGTGCACATAAAACATGTATAT	11
TATAAGACATGATATATACACACCTTGTTTTAATTT [CACACA_site2266]	6.49
TTTTTTTTTTCATTCACACAAAAAAAAAAAATTTAT [CACACA_site5921]	6.21
ATATGAATATATATATGTACTAATTAGTAGTTTACG [XGTACX_site6273]	6.98
AATAAAAATATATCCACACACATATATATATATGTA [CACACA_site576]	6.42
AGAAATTTACAAATACGTACACACATATATATATAT [XGTACX_site3141]	9.26
GAAGATATGTAAAATTGTACATATTATTTTATTTTA [XGTACX_site5302]	6.07
TAAATTTATAAATCACGTACATATTTATTTATATTT [XGTACX_site4532]	6.31
AGATGATATAATGGCACACAAATATTTTATTATAAA [CACACA_site3553]	6.34
ATAATTTCATAATACGTGCACATAATATATAAAAAA	10.9
ATTCAAAATTATAGGTGTACGTATTTTTTTTTTTTT [XGTACX_site7177]	6.43
CACAAAAATAAACACACACACATATATATTTATTAT [CACACA_site5923]	6.6
GGAAACTAAAGGAATAAAACTATGGAAATTAATTAA [CACACA_negctrl_site1647]	6.21
TAAATTAAAAGACACACACACAAAAAAAAAAAAAAA [CACACA_site7131]	6.28
TACTATTTAAAATATGAACACACATTATTTGTTTTA [CACACA_site8870]	6.17
ATATATATATGTAAGAGTACACAAAAATATGTATGT [XGTACX_site4335]	8.46
TAATATGTATATAAAAGTACAGACGATTATAATTAT [XGTACX_site173]	6.47
TGGTAATCCACATACACACACACATACACATATATA [CACACA_site2727]	7.18
AAGAAAAAAAAAATTACACACTGCGCAGATACACAA [CACACA_site1289]	6.88
TTTTGTAGATATGACTGTACATATTTTATACATAAC [XGTACX_site971]	6.31

Sequence	gcPBM binding intensity (ln)
AAAAAATAAATAAATACACACAAATATATATATATA [CACACA_site2543]	9.02
CTTATATATTGCCCTTCACACACACCCATATATATA [CACACA_site8795]	7.47
AAGTATGGAAAGGAATATAAATTAATACTTTCATTG [XGTACX_negctrl_site131]	6.2
CACATACCTATATACACACACAAAATAATAAAATAA [CACACA_site7150]	6.92
TATATATATATATTGACACACATGTATTTCAATATT [CACACA_site2832]	9.01
AGAATGGATTAGCTAGCACACACAAAAAAAAAAAAA [CACACA_site8995]	6.26
ACTAATATTTTATAAAGTACAAATTAATAAAATTCA [XGTACX_site5817]	5.94
TACAAAAAGAATGAAAAATATATAATAAAAATAAAA [XGTACX_negctrl_site159]	6.51
AAGACAACATAAATATGTACATATATTTATTATTTT [XGTACX_site1792]	6.4
TACCATGTTCAAATTACACACATATAATCTAATATA [CACACA_site2008]	6.65
ATTTTTTTTAATTTGTACAAATTTTGTTCACAATTT [CACACA_negctrl_site1301]	7.06
CATTTCATTTCTTAATGTACTTTATTCCACCACATA [XGTACX_site5943]	6.42
TTTATTATTATATTATTTTAATTTTTCTTTAGTACA [GTGCAC_negctrl_site392]	6.1
AAATTAAATAAATTTACACACTAAAAATTACATATA [CACACA_site1054]	6.02
ATAAATATATGAAGTTGTACAAATAATTAACATTAT [XGTACX_site5740]	6.69
ATGTGTGTATACATCAATTATATATATATTATGTAT [GTGCAC_negctrl_site720]	6.93
AAAATAAAAATAACAACACACATATACTATAATATT [CACACA_site2769]	6.66
TATGTTAAAAAAAAATGTACATATGTTTTTGTTAAA [XGTACX_site4754]	6.43
ATACATTCAAAATATACACACATATATATATAATAT [CACACA_site950]	6.61
TTTCCCCCATATAATGAACACACACCCTCCTCATAA [CACACA_site8110]	7.22
GACCCATTATTTTATTGTACTTTTATTATAACGTGA [XGTACX_site156]	6.88
AAATGAATAATGATATACAAACAAATCATGTGTTAA [XGTACX_negctrl_site150]	6.22
ATAATATAGAACAATACATGCAAATGGCTTAAATTT [TGCATGCA_site521]	6.34

Sequence	gcPBM binding intensity (ln)
GGAAGCTAATTACACACATGCATATTTTTTTTTCAA [TGCATGCA_site548]	7.25
ATGGGACAGATATATACACACATATAAATATAAATA [CACACA_site6684]	6.53
TTATATATGTATTAATGTACATAGTTGAGAAAGGTA [XGTACX_site1511]	6.85
AAAGGGACATATATATCACACACAAAAATTAGTCCC [CACACA_site8897]	6.82
TAATATCTACATATATGTACATATATATATATATAT [XGTACX_site7979]	9.16
AATAAATAAAAAATTACACACATATTTATAAATATA [CACACA_site7584]	6.4
AAGATAAACTTTTTTAATTAATTTAATTTTTTTTTT [GTGCAC_negctrl_site386]	6.08
CCCCCCCACGAACACACACACATACATACCACATAT [CACACA_site7149]	8.07
TTATAATAGTTAATATGTACATATTTAATAAATAAT [XGTACX_site3183]	6.23
ATATATATATATATTCCACACACACCCAAAAAAAAA [CACACA_site9215]	8.97
CACAAAAATAAATATAAACACACAATAAATAAATAA [CACACA_site8197]	6.58
TAAAATAAGTTAAAAAGTACATAATTATAATAAATA [XGTACX_site8108]	6.28
TTTGTTTTTATTTACACATGCAAAAAAAAAAAAAAA [TGCATGCA_site655]	6.49
TACAAAATACAAAAATGTACATAAAAATTTATAAAA [XGTACX_site6861]	6.77
TACAGATACGGACACACACACACACCCAGACAAAAA [CACACA_site4432]	6.81
ATATTAAAATATAATCGTACAATTAAATTTTTTTTT [XGTACX_site2739]	6.19
TTTTTTTTAAATTGTGGTACACAAATTCATATATAT [XGTACX_site8944]	6.55
TAAATATAATAAGAACAAACAAAATAGTACAATATA [TGCATGCA_negctrl_site364]	6.84
GTCATATTATTATTACGTACTTAAATATATAATATA [XGTACX_site3405]	6.71
AAAAGAAAAAAAAGTACACACATGTATATTAATCGT [CACACA_site2528]	6.7
